# Reference: a collection of fitness landscapes (doi:10.1038/s41467-024-54723-y)
# Over roughly 18,000 sequences, “TetR repression strength (sort-seq, GFP reporter)” has its median near 0.23; the highest 2% begin near 0.68. This is one part of the list.
# Target: TetR (class B, Tn10) (UniProt P04483)
# Test: TetR repression strength (sort-seq, GFP reporter) (relative to tetO2 = 1); higher = stronger repression
# Details: E. coli
# Summary of the method: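 Repression strength is the top bin index plus one minus the read-weighted mean bin, relative to the unaltered operator's value. A low-copy library in E. coli SIG10-MAX randomized eight operator positions between a constitutive promoter and sfGFP, with TetR expressed constitutively; cells grew 5 h at 37 °C in LB with 50 µg/mL chloramphenicol and 10^6 were FACS-sorted into 13 bins that were each Illumina-sequenced. Three independent transformations were averaged, keeping only members with ≥30 reads in all replicates and CV ≤0.5.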
# Sequence of UniProt P04483 (P04483 whole entry): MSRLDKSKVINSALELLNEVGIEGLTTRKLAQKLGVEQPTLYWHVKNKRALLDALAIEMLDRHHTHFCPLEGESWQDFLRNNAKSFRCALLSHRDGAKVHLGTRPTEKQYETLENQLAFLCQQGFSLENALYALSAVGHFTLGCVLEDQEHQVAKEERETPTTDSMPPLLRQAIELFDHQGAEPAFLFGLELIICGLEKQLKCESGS
row,Sequence,TetR repression strength
1,TCCCATTCAGTAATGGAGA,0.145
2,TCCCAGTGAGTGGCAGAGA,0.392
3,TCCCCAAGAGTTGTTGAGA,0.278
4,TCCCTGTGAGTGTATGAGA,0.165
5,TCCCGAAAAGTCGATGAGA,0.152
6,TCCCGTAAAGTGGGCGAGA,0.0438
7,TCCCTATCAGTACGTGAGA,0.349
8,TCCCGGAGAGTTCACGAGA,0.166
9,TCCCGCGCAGTCACGGAGA,0.206
10,TCCCCGGTAGTGCGAGAGA,0.218
11,TCCCGCACAGTCCTGGAGA,0.539
12,TCCCGCACAGTAGCGGAGA,0.0968
13,TCCCGCTGAGTCTAGGAGA,0.266
14,TCCCAATTAGTAAGCGAGA,0.218
15,TCCCGAGCAGTCGTCGAGA,0.202
16,TCCCGATGAGTATGGGAGA,0.224
17,TCCCGGTTAGTTAGAGAGA,0.0159
18,TCCCACGTAGTGATGGAGA,0.0469
19,TCCCTGAGAGTTGTTGAGA,0.169
20,TCCCTGGGAGTCCCGGAGA,0.128
21,TCCCTCTTAGTCGGAGAGA,0.127
22,TCCCATACAGTTCTAGAGA,0.331
23,TCCCCTCCAGTGTGCGAGA,0.233
24,TCCCCAAGAGTAACCGAGA,0.183
25,TCCCTATGAGTAGTAGAGA,0.204
26,TCCCGTGTAGTACAAGAGA,0.326

row,Sequence,TetR repression strength
1,TCCCCATGAGTTCCGGAGA,0.553
2,TCCCTCAAAGTGGATGAGA,0.277
3,TCCCCGGTAGTCGGGGAGA,0.247
4,TCCCAGCAAGTTACTGAGA,0.104
5,TCCCGCGTAGTAGTCGAGA,0.33
6,TCCCTGGTAGTCTTTGAGA,0.23
7,TCCCAGTTAGTATAGGAGA,0.122
8,TCCCAAGGAGTTGACGAGA,0.592
9,TCCCGTACAGTTGGAGAGA,0.248
10,TCCCTTGTAGTTTATGAGA,0.339
11,TCCCTGCCAGTACCGGAGA,0.333
12,TCCCCTAGAGTTAGAGAGA,0.349
13,TCCCTAATAGTTGGAGAGA,0.023
14,TCCCAATCAGTCCTGGAGA,0.16
15,TCCCTGGCAGTGACTGAGA,0.165
16,TCCCAGAAAGTTAATGAGA,0.563
17,TCCCCCATAGTGTTTGAGA,0.311
18,TCCCGGATAGTTCTGGAGA,0.104
19,TCCCGTCAAGTTTGTGAGA,0.0335
20,TCCCACTCAGTGGCCGAGA,0.378
21,TCCCTTTAAGTACTAGAGA,0.152
22,TCCCGCTAAGTTCAGGAGA,0.238
23,TCCCAAGCAGTGAGGGAGA,0.134
24,TCCCTTAGAGTTGGAGAGA,0.484
25,TCCCACACAGTTGCAGAGA,0.333
26,TCCCCGTGAGTTAGGGAGA,0.21

row,Sequence,TetR repression strength
1,TCCCGTGCAGTTGCTGAGA,0.181
2,TCCCAACGAGTCGCTGAGA,0.364
3,TCCCTAAGAGTGCAGGAGA,0.0907
4,TCCCCTGGAGTCGGGGAGA,0.222
5,TCCCGTAAAGTGGGTGAGA,0.315
6,TCCCCTGGAGTGGGTGAGA,0.241
7,TCCCGACAAGTAGCGGAGA,0.175
8,TCCCGGTGAGTGCGCGAGA,0.177
9,TCCCATTAAGTGAGAGAGA,0.478
10,TCCCGTCGAGTGGTAGAGA,0.426
11,TCCCATGTAGTTCTAGAGA,0.259
12,TCCCGCTTAGTGATCGAGA,0.575
13,TCCCCGTGAGTGTGGGAGA,0.252
14,TCCCGGGAAGTTGGGGAGA,0.141
15,TCCCCTAGAGTCGATGAGA,0.271
16,TCCCAGCAAGTCAGGGAGA,0.217
17,TCCCGCGGAGTCGCTGAGA,0.337
18,TCCCTATTAGTTCTCGAGA,0.285
19,TCCCTCGGAGTCACAGAGA,0.247
20,TCCCGAGCAGTATCGGAGA,0.138
21,TCCCGACGAGTCCGAGAGA,0.309
22,TCCCTGCCAGTCGGGGAGA,0.268
23,TCCCACCAAGTGACTGAGA,0.499
24,TCCCGAAGAGTCCCTGAGA,0.366
25,TCCCTTCTAGTTACGGAGA,0.26
26,TCCCGTGCAGTGTACGAGA,0.297

row,Sequence,TetR repression strength
1,TCCCGCTGAGTACAGGAGA,0.205
2,TCCCAGAGAGTGGTGGAGA,0.298
3,TCCCGAGGAGTTCTCGAGA,0.251
4,TCCCTACAAGTGATCGAGA,0.593
5,TCCCCACGAGTACACGAGA,0.253
6,TCCCGTACAGTTGATGAGA,0.2
7,TCCCCAGGAGTTTATGAGA,0.401
8,TCCCATTTAGTAAATGAGA,0.19
9,TCCCGAGAAGTGCGGGAGA,0.231
10,TCCCTCACAGTGGAGGAGA,0.221
11,TCCCTCACAGTGCATGAGA,0.304
12,TCCCCGGCAGTCACTGAGA,0.198
13,TCCCACAAAGTGAAAGAGA,0.407
14,TCCCCGGGAGTAGCGGAGA,0.0558
15,TCCCATTTAGTACTTGAGA,0.0724
16,TCCCAGGTAGTGAATGAGA,0.206
17,TCCCAGTTAGTTTCAGAGA,0.262
18,TCCCCGAGAGTCGGTGAGA,0.284
19,TCCCGAGAAGTATGTGAGA,0.134
20,TCCCTGTCAGTACGCGAGA,0.311
21,TCCCGGTAAGTAACGGAGA,0.201
22,TCCCCTTAAGTTCGCGAGA,0.567
23,TCCCCTAGAGTGTCGGAGA,0.384
24,TCCCTATAAGTTGTGGAGA,0.201
